According to PMC4786772, “Manipulation of prenylation reactions by structure-based engineering of bacterial indolactam prenyltransferases” (Nature Communications, 2016):

Target: TleC (Streptomyces blastmyceticus, UniProt A0A077K887)
Conditions: with (−)-indolactam V, 37 °C, 18 h

CC(C)=CCC/C(C)=C/CC/C(C)=C/COP(=O)(O)OP(=O)(O)O [FPP]
HPLC / LC-MS product formation: both TleC and MpnD also accepted farnesyl pyrophosphate (FPP) (C15)
